The whole screen tested about 310,000 compounds, of which about 2,200 (0.71%) showed an effect of 50% or more. The effect is printed as a negative number. Some of the results follow.
These compounds were tested against human ether-à-go-go-related gene (hERG) potassium channel (human, UniProt Q12809) (assay: primary screen, population patch clamp on CHO cells stably expressing hERG).
human ether-à-go-go-related gene (hERG) potassium channel, sequence (Q12809 whole entry, looked up): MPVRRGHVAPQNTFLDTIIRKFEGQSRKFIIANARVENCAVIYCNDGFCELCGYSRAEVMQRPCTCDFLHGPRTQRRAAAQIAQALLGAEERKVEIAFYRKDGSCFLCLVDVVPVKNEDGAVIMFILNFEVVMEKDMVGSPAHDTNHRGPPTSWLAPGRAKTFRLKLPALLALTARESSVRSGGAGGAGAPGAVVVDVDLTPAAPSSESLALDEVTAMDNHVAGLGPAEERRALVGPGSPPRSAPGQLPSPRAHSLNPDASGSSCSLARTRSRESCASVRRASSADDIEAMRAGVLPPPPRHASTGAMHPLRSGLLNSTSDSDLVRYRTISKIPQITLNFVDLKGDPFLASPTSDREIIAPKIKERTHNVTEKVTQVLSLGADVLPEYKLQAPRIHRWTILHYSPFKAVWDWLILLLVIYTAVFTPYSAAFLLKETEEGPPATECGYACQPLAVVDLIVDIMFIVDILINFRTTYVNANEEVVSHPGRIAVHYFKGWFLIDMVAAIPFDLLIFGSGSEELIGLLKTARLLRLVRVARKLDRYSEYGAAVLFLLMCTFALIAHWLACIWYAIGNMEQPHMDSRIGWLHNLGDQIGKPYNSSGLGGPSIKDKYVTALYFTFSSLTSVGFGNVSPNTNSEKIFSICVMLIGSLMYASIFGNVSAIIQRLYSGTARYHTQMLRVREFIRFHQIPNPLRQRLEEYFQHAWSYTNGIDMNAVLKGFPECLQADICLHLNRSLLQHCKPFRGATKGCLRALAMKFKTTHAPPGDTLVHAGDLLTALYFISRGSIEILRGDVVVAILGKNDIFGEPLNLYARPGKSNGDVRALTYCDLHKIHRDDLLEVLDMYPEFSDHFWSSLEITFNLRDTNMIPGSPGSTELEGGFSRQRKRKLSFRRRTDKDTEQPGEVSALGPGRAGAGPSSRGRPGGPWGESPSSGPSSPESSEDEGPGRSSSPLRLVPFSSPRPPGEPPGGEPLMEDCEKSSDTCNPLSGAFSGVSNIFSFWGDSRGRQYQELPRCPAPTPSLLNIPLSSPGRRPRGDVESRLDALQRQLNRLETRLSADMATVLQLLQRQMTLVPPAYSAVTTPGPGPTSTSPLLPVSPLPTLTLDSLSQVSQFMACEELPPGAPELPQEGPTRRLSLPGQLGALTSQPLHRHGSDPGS

Compound | hERG current change (%, negative = inhibition) at 1uM [%]
COc1cccc(N(C(=O)CNC(=O)c2ccco2)C(C(=O)NC2CCCC2)c2ccco2)c1 (stereo not drawn) | -1.85
COc1ccc2oc(C(=O)OC(C)C(=O)NC3(C#N)CCCCC3)c(C)c2c1 (stereo not drawn) | -4.03
CCCCOC(=O)c1cc(=O)[nH]c2ccc(C)cc12 | 11.1
CCOC(=O)N1CCC(NC(=O)Cn2nc(-c3ccccc3)ccc2=O)CC1 | 6.2
COc1ccc([C@H]2CC(=O)C=C(c3cccc4c3Oc3ccccc3S4)C2)cc1 | -6.78
COC(=O)c1ccc(COn2nnc3ccccc32)cc1 | 9.88
O=C(Nc1cccc(S(=O)(=O)N2CCCCC2)c1)c1ccc(S(=O)(=O)C(F)F)cc1 | 10.8
Cc1ccc2c(c1)N(CCC(=O)NCC1CCCO1)C(=O)CO2 (stereo not drawn) | -3.9
CS(=O)(=O)c1ccc(Cl)c(NC(=O)COC(=O)CNC(=O)c2sc3ccccc3c2Cl)c1 | 7.41
CCn1c(COc2ccc(C)cc2)nnc1SCC(=O)Nc1ccc2c(c1)OCCO2 | 13
COc1ccc(NC(=O)CN(C)C(=O)CNC(=O)Cc2cccc3ccccc23)cc1 | 11
COC(=O)C1=C(c2cccc(OCc3ccccc3)c2)C[C@@H]2CC[C@H]1N2C(=O)NCc1cccc(F)c1 | 14.4
COc1ccccc1OC(=O)CCN1c2ccccc2Sc2ccccc21 | 7.3
O=C(Nc1ccc(F)cc1F)c1cc(-c2ccco2)on1 | 5.34
Cn1c(CN2CCOCC2)nnc1SCC(=O)Nc1ccc([N+](=O)[O-])cc1O | 10.5
CN(C)S(=O)(=O)c1cccc(C(=O)Nc2n[nH]c(C(F)(F)F)n2)c1 | 12.7
O=C(CS(=O)(=O)Cc1ccccc1)NCc1ccccc1Cl | 8.36
COc1ccc(CNc2nc(SC)n[nH]2)cc1OC | 15.4
CN(C)c1nnnn1Cc1ccc(Cl)cc1Cl | 9.13
CCOc1ccccc1/C=C/c1onc(C)c1S(=O)(=O)N1CCC(C(=O)NC(C)C)CC1 | 11
Cc1ccc(C(=O)N2CCOCC2)cc1S(=O)(=O)N1CCOCC1 | 17.9
O=C(NNS(=O)(=O)c1ccc(Br)cc1)NC1CCCCC1 | 5.72
COc1ccccc1CNC(=O)CSc1ccc(C)cc1 | -8.53

Compound | hERG current change (%, negative = inhibition) at 1uM [%]
CN(C)/C=C1\N=C(c2cccnc2Oc2ccc(Cl)cc2)OC1=O | 12.2
COc1ccccc1C(NC(=O)C1CCCCC1)c1c(O)ccc2ccccc12 (stereo not drawn) | 1.87
CC1Sc2ccc(S(=O)(=O)CCC(=O)N3CCCCC3)cc2NC1=O (stereo not drawn) | 11.6
N#Cc1c(-c2ccco2)nc(SCC(=O)Nc2cccc(Cl)c2)[nH]c1=O | 2.19
CCOc1ccccc1N1CCN(c2nc(N)c(C#N)c(CC#N)c2C#N)CC1 | 0.82
COc1ccc(C2=C(CC(=O)O)C(=O)CC2)cc1 | 14.7
Cc1cc(C(=O)NNS(=O)(=O)c2cc(C(=O)O)ccc2Cl)c(C)n1-c1ccccc1 | 6.4
CCCc1noc2c1/C(=N\O)CC(c1ccccc1)C2 (stereo not drawn) | 2.29
COC(=O)C(C(=O)Nc1cccc(C)n1)C1CCCCCC1 (stereo not drawn) | 15.9
O=C(Cc1ccc(-c2ccccc2)cc1)OCC(=O)N1CCCC1=O | 25.5
COC(=O)c1cc2c(cc1N)OCCO2 | 21.5
COCCNC(=O)CSc1cc(-c2ccccc2)c2ccc(OC)cc2n1 | -2.15
CC(=O)NNc1ncnc2c1cnn2-c1ccccc1 | 1.51
COc1ccc(C2C=C(C34CC5CC(CC(C5)C3)C4)NC(=S)N2)cc1 (stereo not drawn) | 1.47
O=C(OCC(=O)N1CCCCCC1)c1n[nH]c(=O)c2ccccc12 | 8.67
C=CCN1C(=O)/C(=C\c2ccc(C)cc2)N=C1SCC(=O)NCCC | 7.03
COc1ccc(-c2noc(CN(C(=O)c3ccc4c(c3)OCO4)C(C)C)n2)cc1 | 12
CCN1C(=O)/C(=C/c2ccc3c(c2)CCN3CCCCl)C(=O)NC1=S | 9.33
CCOC(=O)c1ccc(NC(=O)N2CCN(c3cccc(OC)c3)CC2)cc1 | -7.21
Clc1ccc(-n2ncc3c(N4CCCCCC4)ncnc32)cc1 | 18.7
CC12CN3CC(C)(CN(C1)C3c1ccc3ccccc3c1O)C2=O (stereo not drawn) | 9.61
CCN(CC(=O)Nc1cc(Cl)ccc1C)C(=O)Cc1ccsc1 | 9.51
COc1ccccc1NC(=O)NNC(=O)COc1ccc2ccccc2c1 | 13.8

Compound | hERG current change (%, negative = inhibition) at 1uM [%]
O=C1CC2(CCN(S(=O)(=O)c3ccccc3F)CC2)Oc2ccccc21 | -5.89
Cc1ccc(-c2cc(C(=O)N/N=C/c3ccccc3)n[nH]2)o1 | -1.26
COc1ccccc1C(=O)Oc1ccc2ccc(=O)oc2c1 | 11.3
Clc1cccc(C2Nc3cccc4cccc(c34)N2)c1 | 12
CCOC(=O)c1cccnc1SC(CC)C(=O)NCc1ccco1 (stereo not drawn) | -6.91
O=C(c1ccc(=O)[nH]c1)N1CCN(S(=O)(=O)c2ccc3ccccc3c2)CC1 | 6.52
CCCc1nc2ccccc2c(=O)n1CCc1ccccc1 | 15.6
Cl.Clc1ccc(CN2C3=NCCCN3c3ccccc32)cc1 | -54.3
COc1ccc(OCC(=O)N/N=C/c2ccsc2)cc1 | -0.486
Br.CCCc1nnc2n1N=C(c1ccc(OC)c(OC)c1)CS2 | 3.96
COc1ccc(C(=O)N2CCN(CCc3ccccc3)CC2)cc1[N+](=O)[O-] | -73.5
O=C(c1ccc(C(F)(F)F)cc1)C1CCCN(C(=O)CN2CCCC2=O)C1 (stereo not drawn) | 10.2
COc1ccc(C2(C(=O)N3CCC(n4nc(-c5ccccc5)oc4=O)CC3)CC2)cc1 | 14.8
CCN1C(=O)CC(Sc2ccccc2C(=O)O)C1=O (stereo not drawn) | -1.91
CCOC(=O)NC1(C(F)(F)F)NC(=O)N(C2CCCCC2)C1=O (stereo not drawn) | 13.5
CCc1nc(OCCN(C)C)c2oc3ccccc3c2n1 | 8.48
Cc1ccc(S(=O)c2snnc2C)cc1 (stereo not drawn) | 15.8
Cn1c(NCCCN2CCOCC2)nc2c1c(=O)n(Cc1ccc(Cl)cc1Cl)c(=O)n2C | -3.89
CN(C)Cc1ccc(O)c(CCc2ccccc2)n1.Cl | 3.18
Cc1ccc(S(=O)(=O)N(C)C)cc1-n1c(SCC(=O)Nc2ccc(F)c(F)c2F)nc2ccccc2c1=O | 15.2
NS(=O)(=O)c1ccc(-c2cccc(/C=C3\SC(=O)NC3=O)c2)cc1 | 6.21
O=C(CSc1cc(Cl)ccc1Cl)Nc1ccc(N2CCOCC2)cc1 | -20
Cn1c2ccccc2c2cc(C(=O)N3CCOCC3)sc21 | 14.8

Compound | hERG current change (%, negative = inhibition) at 1uM [%]
CNS(=O)(=O)c1ccc(NC(=O)Nc2cccc(F)c2)cc1 | 11.7
COc1cccc(C(=O)NNC(=O)C(=O)Nc2ccc(C)cc2)c1 | 10.6
CCC1=C(c2cc(OC)c(OC)c(OC)c2)C2(CCCC2)C(=O)O1 | 6.61
CC(=O)Nc1cccc(-c2nnc(-c3ccc(C)cc3)o2)c1 | 17.6
CC1(C)Cc2cccc(OCC(=O)N3CCN(S(=O)(=O)c4ccccc4F)CC3)c2O1 | 1.82
COc1ccc(NS(=O)(=O)c2cc(NC(=O)CCNC(C)=O)ccc2N2CCCCC2)cc1 | -5.15
Cc1cccc(CSc2nc(N)c(C#N)c(-c3cccs3)c2C#N)c1 | -13.3
Cc1ccc(O)c(-c2cc(C(=O)NCc3ccc4c(c3)OCO4)[nH]n2)c1 | 7.09
Cn1cccc1C(=O)NC(=O)CSc1cccc[n+]1[O-] | 10.2
Cc1cc(OCC(=O)O/N=C(\N)Cc2cccs2)ccc1Br | 14.9
O=C(CN1CCN(Cc2cccc(Cl)c2)C1=O)NCc1cccs1 | 1.35
O=C(c1cccs1)N1CCN(C2CCN(Cc3ccccc3)CC2)CC1 | -27.3
COc1ccc(CC(=S)N2CCOCC2)cc1F | 0.485
Brc1ccc(-c2ccc(CNCc3ccccn3)o2)cc1.Cl | 12.3
COc1ccccc1C1CC(=O)NC(C)=C1C(=O)OC(C)C (stereo not drawn) | 3.91
Cc1ccc(-c2cc(N)n(-c3ccc(F)cc3)n2)cc1 | 4.15
CCOc1nc(-c2ccc(C)cc2)ccc1-c1noc(COC)n1 | 9.68
Cc1ccc(CN(CC(=O)NC2CCCC2)C(=O)c2csnn2)cc1 | 11.9
CC1CC(C)(C)N2C(=O)C3(Nc4ccccc4S3)c3cccc1c32 (stereo not drawn) | 21.5
O=C(Nc1ccc(Cl)cc1)c1ccc2ncsc2c1 | 13.2
COc1ccc(CCN(C(=O)/C=C/C(=O)O)C2CC(=O)N(c3ccccc3)C2=O)cc1 (stereo not drawn) | 8.45
